Data published in patent US8163528B2, “Nucleic acid molecules encoding thymidine kinase fusion proteins” (Darwin Molecular Corporation, priority 1997, dated 2012).

Tested on: BHK tk
Experiment: Sensitivity of guanylate kinase transfectant pools to ACV in TK expressing clones
Type: cell-based, hamster
Conditions: gmk+75 D4 expressing cells
Experimental: pREP8-7, pREP8-7:hgmk and pREP8-7:mgmk are used to transfect BHK tk, TK-transfected clone C3 and 75-transfected clone D4. Histidinol is used to select pools of stable transfectants and to isolate individual clones.
As in Example 8, pools of transfectants are placed in 96 well microtiter dishes at 1000 cells/well. Eight replicates are incubated for three days in the presence of various GCV or ACV concentrations.

B1: gmk+75 D4: guanylate kinase co-expressed in 75-transfected BHK clone D4 (protein, UniProt Q64520 1-198, looked up)
Guanylate kinase: MAGPRPVVLSGPSGAGKSTLLKKLFQEHSSIFGFSVSHTTRNPRPGEEDGKDYYFVTREMMQRDIAAGDFIEHAEFSGNLYGTSKEAVRAVQAMNRICVLDVDLQGVRSIKKTDLCPIYIFVQPPSLDVLEQRLRLRNTETEESLAKRLAAARTDMESSKEPGLFDLVIINDDLDKAYATLKQALSEEIKKAQGTGHA
  sensitivity to ACV greater than that of TK expressing cells: 6-7 times
